Measurements published in publication PMC4336329 (PLoS ONE, 2015).
In all, about 310,000 compounds went through this assay and about 2,200 (0.71%) showed an effect of 50% or more. Effects have a minus sign here. Some of the results follow.

Molecular target: human ether-à-go-go-related gene (hERG) potassium channel (human, UniProt Q12809)
Assay: primary screen, population patch clamp on CHO cells stably expressing hERG

Sequence of human ether-à-go-go-related gene (hERG) potassium channel (Q12809 whole entry, looked up): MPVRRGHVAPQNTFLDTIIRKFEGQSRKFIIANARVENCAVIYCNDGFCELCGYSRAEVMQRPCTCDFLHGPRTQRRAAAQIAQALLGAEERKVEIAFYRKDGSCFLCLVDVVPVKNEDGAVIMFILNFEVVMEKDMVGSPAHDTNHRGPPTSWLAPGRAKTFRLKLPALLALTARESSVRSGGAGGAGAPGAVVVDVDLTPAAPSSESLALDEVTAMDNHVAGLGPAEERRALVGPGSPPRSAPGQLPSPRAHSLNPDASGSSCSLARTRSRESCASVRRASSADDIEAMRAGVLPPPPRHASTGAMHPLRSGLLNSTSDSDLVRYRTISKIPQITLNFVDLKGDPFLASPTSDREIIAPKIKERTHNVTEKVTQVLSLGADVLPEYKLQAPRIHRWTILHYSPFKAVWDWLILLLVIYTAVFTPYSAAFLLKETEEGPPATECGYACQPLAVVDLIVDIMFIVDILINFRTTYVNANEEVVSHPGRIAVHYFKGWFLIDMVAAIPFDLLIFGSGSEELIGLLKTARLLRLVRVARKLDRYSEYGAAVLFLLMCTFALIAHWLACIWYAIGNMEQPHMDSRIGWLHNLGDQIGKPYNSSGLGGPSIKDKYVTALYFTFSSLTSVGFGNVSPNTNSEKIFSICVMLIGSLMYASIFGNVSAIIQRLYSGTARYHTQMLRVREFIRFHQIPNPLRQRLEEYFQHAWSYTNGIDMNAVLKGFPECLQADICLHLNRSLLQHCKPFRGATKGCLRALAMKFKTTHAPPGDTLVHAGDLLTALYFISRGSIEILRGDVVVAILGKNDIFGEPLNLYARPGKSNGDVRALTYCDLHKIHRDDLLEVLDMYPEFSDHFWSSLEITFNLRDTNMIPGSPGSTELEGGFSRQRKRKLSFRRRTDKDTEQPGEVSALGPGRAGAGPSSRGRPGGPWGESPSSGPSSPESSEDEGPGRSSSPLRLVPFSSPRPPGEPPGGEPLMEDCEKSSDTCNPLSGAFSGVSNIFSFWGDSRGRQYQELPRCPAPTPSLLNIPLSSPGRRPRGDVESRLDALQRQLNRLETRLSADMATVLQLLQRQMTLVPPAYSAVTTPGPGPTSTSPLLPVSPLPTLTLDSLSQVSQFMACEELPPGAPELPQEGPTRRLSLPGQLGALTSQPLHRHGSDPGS

SMILES | hERG current change (%, negative = inhibition) at 1uM [%]
Cn1c(-c2ccc(F)cc2)cc2onc(-c3ccccc3Cl)c2c1=O | 7.6
O=C(Cc1c(Cl)cccc1Cl)Nc1cccnc1 | 13.3
COCCCNCCCCOc1ccccc1-c1ccccc1.O=C(O)C(=O)O | -10.9
CS(=O)(=O)c1ccc(C(=O)OCC(=O)c2ccc(Cl)s2)cc1 | 7.3
CCCC1C(C(=O)OCC)=C(C)NC(C)=C1C(=O)OCC | 9.55
O=C1C=CC(=C(c2ccc(O)cc2)c2ccc(O)cc2)C=C1 | 6.2
Cc1cccc(NC(=O)CN(CC2CCCO2)C(=O)c2oc3ccc(F)cc3c2C)c1C (stereo not shown) | -2.57
O=C(Nc1ccccn1)c1cc(-c2cccc(Cl)c2)nc2ccccc12 | 5.1
CCOC(=O)c1c(CCl)nc2ccccc2c1C.Cl | -0.294
CC(NC(=O)c1cccs1)C(c1cccs1)N1CCOCC1 (stereo not shown) | 11.9
Cc1ccnc(N2CCC(C(=O)Nc3ccc4c(c3)OCCO4)CC2)n1 | 8.06
C=CCN1C(=O)/C(=C2/Sc3ccccc3N2C)SC1=Nc1c(C)n[nH]c1C | 6.45
Cc1nonc1NC(=O)CSc1nc2cc(Cl)ccc2c2c1CCCC2 | 6.01
CCn1nc(C)c(CNC(=O)C2CCC(=O)N(Cc3cccc(F)c3)C2)c1C (stereo not shown) | 17.5
CCCCn1c(=O)[nH]c(=O)c2c1nc(-c1ccc(-c3ccccc3Br)o1)n2CCOC | 14.9
CCCCCCC(=O)N/N=C/c1ccco1 | 5.51
Oc1ccc(C=NCCc2ccccc2)cc1 | 8.66
Cc1cc(C(=O)NCC(=O)Nc2c(C)cccc2C)c2ccccc2n1 | 13.3
N#Cc1nc(COc2ccccc2)oc1N1CCN(Cc2ccccc2)CC1 | -3.01
CCOC(=O)C1(Nc2nccs2)Sc2ccccc2NC1=O (stereo not shown) | -1.04
COc1ccc(Cl)c(Cn2c(NCc3ccco3)nc3c2c(=O)n(C)c(=O)n3C)c1 | 15.8
CCc1ccccc1NC(=O)c1cc(C2CC2)on1 | 0.142
O=C1Nc2ccccc2C1C(C[N+](=O)[O-])c1ccccn1 (stereo not shown) | 13.9
CCCCCCn1c(=O)[nH]c2nc3cc(N)ccc3nc2c1=O | 8.89
CCOc1ccccc1NC(=O)CSc1nnc2c(CC)c(C)nc(N)n12 | 5.61
